# Reference: the supplement of paper PMC11417369
# The list shows a part of the results.
# Test system: PfHDP1 homeodomain (GST-tagged)
# Experiment: gcPBM binding intensity (ln(normalized median fluorescence intensity)); higher = stronger DNA binding
# Method in brief: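 GST-tagged P. falciparum DNA-binding domains produced in E. coli were incubated for 1 h on an Agilent 4 × 180k array of primer-extended double-stranded 36-bp intergenic genomic probes with negative controls. Binding intensity is the highest Masliner-normalised natural-log median intensity across replicate spots of either probe orientation, with bound protein detected by Alexa488 anti-GST antibody at 488 nm.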
row,Sequence,gcPBM binding intensity (ln)
1,AGTTTGCATATGGAAGTGCATTACCTTGAACATCAT,8.84
2,AAAAAATATATATGCACACACAAAAAAACAAATTAA [CACACA_site1278],9.51
3,ACTACGTGGATTAGTTCAAGGGAACACGTCCTATAC [CACACA_negctrl_site1427],5.94
4,CAACAAAAGTTATTTACACACAAAAGGCAAGGAAAT [CACACA_site7013],6.98
5,ACTAAACGAATAAATTGTACAAAGAAATATATTCAT [XGTACX_site6766],6.44
6,ATATTTCATTTTTGTACACACAACGTTGGAGGGTTT [CACACA_site3043],6.98
7,TAAAAAATTACATATTGTACAGGCAAAATTACACAT [XGTACX_site1152],6.66
8,AAAGGAAATAAAAACGCACACAGAAATAATATCTAT [CACACA_site457],6.92
9,TTTTTATCTAATCTAATATTATATTATACATATAAT [XGTACX_negctrl_site275],6.32
10,TGTGTGTGCTTATTTTGTACATATTAGGTAAATATT [XGTACX_site6329],7.04
11,TTTATGGAATAATCACGTACACACAAGAAAAAAAAA [XGTACX_site985],6.56
12,AACTCATAAAATAATGGTACACAAAAAAAATAAATA [XGTACX_site7648],6.8
13,TTAGATTTATAAGTGTGTACGTAAAATACTTAATAA [XGTACX_site8246],6.28
14,TTAGGCAAGGCGGGGGGTACGTTTTTATATAATTAT [XGTACX_site8029],8.5
15,TTTTTTTTTTTCTTTTGTACGTATAAAATTATATAA [XGTACX_site2453],6.18
16,CAAGGAACCAGACACACACACATAAATGTATTTATA [CACACA_site6491],6.57
17,ATAAATGACAAATTAACACACATATATTATATATAT [CACACA_site3899],6.95
18,GTTGGTAGGCGGTACGGTACACGTAAAGTTTTTCTT [XGTACX_site7706],6.2
19,ACCATATAAATAAACACACACACACGGATATAAATA [CACACA_site7157],6.98
20,TACATACATACATACACACATACATATGTATATATA [CACACA_site2480],7.37
21,TAATGCCATAATACGTGTACTTAATATATTAGAACA [XGTACX_site5809],6.48
22,CTCAAATGTTATTGTAGTACCTAAAAAATATATTCT [XGTACX_site1970],6.11
23,ATATGTATTAAGTGTACACATATAATCTATCTTGTT [CACACA_site5329],6.91

row,Sequence,gcPBM binding intensity (ln)
1,CCCACTAAAAAACACACACACACACCCATATATATA [CACACA_site6140],6.96
2,TTTTTTTTATATAGTAGTACTAATTAGAATTTTTAT [XGTACX_site7476],6.23
3,TATATGTTTTATAGTACACACATAAATGGACATACT [CACACA_site2191],6.48
4,TGAATTTAGATATATACACACAAAAGTATATACAAT [CACACA_site2804],6.36
5,TGTACATATATATATATAATAATAGTTATGTTTATT [CACACA_negctrl_site1474],6.61
6,TTTTTTTATAGCTAAACACACATAAGAATATATGTT [CACACA_site1099],6.84
7,ATTATTACACAACGTTGTACATTTCAATATTTTTAT [XGTACX_site5096],7.3
8,AAAATAATATATAATTGTACTTTTTTTTTATATATA [XGTACX_site6093],6.1
9,TTTCTTTTTTTTTAATGTACTTTTTTTATAAAAGGT [XGTACX_site5688],6.56
10,TTTTTTCTTAAAATTTGTACATAGTGCAATTTTTTT [XGTACX_site5509],9.45
11,TCCTCTTCAATATATATATATTATAAATAAATAAAT [CACACA_negctrl_site1756],6.62
12,TATTTTTTATATTTATTTATTTAAAGGAGCTTTTCT [GTGCAC_negctrl_site293],6.15
13,TATAAGAATGACAAGTGTACATATCAAATATATTAG [XGTACX_site7113],6.36
14,TATACTAAAAAATACACATGCACATACAATATATAT [TGCATGCA_site1016],8.36
15,ACATACTTTAATATATGTACATAAGAAAAAAAAAAA [XGTACX_site2991],6.53
16,AATATAAATTAATTTACACACTAAAAAATATTTATA [CACACA_site7728],6.41
17,AAGTTGTATATTGATTGTACTTGTTTAGGGTTATAG [XGTACX_site2953],6.57
18,ATATATATAATAAACACACACATATACATATATGTA [CACACA_site3462],6.97
19,AGGTAAAATATACATTGTACATATAATTAATTTATT [XGTACX_site626],6.25
20,TATATATATATAATGTGTACACAAATATATATTATA [XGTACX_site8786],8.93
21,AAATTTATATAATATTGTACATTAAAAATTATATAT [XGTACX_site8009],6.21
22,AGTATATATACACAAGGGGAATACATATACAAAATT [TGCATGCA_negctrl_site244],6.77
23,TGGGTAATACATAATACACACATGTATATGTCGCAT [CACACA_site1125],6.51

row,Sequence,gcPBM binding intensity (ln)
1,TATGTATAAATATATGCACACATATATATATTTATA [CACACA_site9150],9.35
2,TTTTTAAAAAAGATAAGCGAAAGAATTAATTTTTAA [GTGCAC_negctrl_site197],6.41
3,TTTGAATTTTTTAACACACACATGTGTGGATATATA [CACACA_site6872],6.6
4,TATTAACACTTTATAGAAACAAAAAAATAAGCAAAA [XGTACX_negctrl_site295],6.79
5,CTCAATATATTTGATTTACACACTTACAATGTATAT [CACACA_site8982],6.78
6,TATTAAAGATACTCGGTATAAATAAATTTTAATGTG [XGTACX_negctrl_site239],6.35
7,AAGTGGCATATAAGTAAAAAATATATACAAGTATAT [GTGCAC_negctrl_site427],6.25
8,TATAAAAAATATAATTGTACATAAAGGTTAAAATGT [XGTACX_site6138],6.9
9,TTATTTCTACCTTTTTGTACACATTATTATGAAACC [XGTACX_site5325],7.46
10,ATGCTTATTATTTATTGTACTGAATAAATATATCTG [XGTACX_site4483],6.46
11,ACAACATGCACACGCACACACAAAAAAAGCATGCAT [CACACA_site6185],9.78
12,ATAAATCATAAGGAGAGTACATAAATAAAATAATCA [XGTACX_site8825],6.6
13,TACAATACCGTACAGGTGCAACTAGCCAAAAAAAAG,10.3
14,TAAATTAATAAAAAGTGTACATAATATACATATATA [XGTACX_site8604],6.75
15,TTTAATAATATTTAGGTGCTATATATTATATGTATA,6.33
16,CGTATGACATAATATTGTACTTTTGATATACATCAT [XGTACX_site7366],6.3
17,ATAATTAAAAAAGGAATATATATATATATATATATA [GTGCAC_negctrl_site343],9.48
18,AAACAAAAAAGAAACACACACTAATTAAATTTTCTT [CACACA_site4746],6.33
19,TATATTTTTTTTCTAGTGCATATTATTAATTAAGTT,8.71
20,TGAGTATTTTTTTAATGTACTTATATTAAAAGGAAA [XGTACX_site6286],6.32
21,AAAATATTATTTTGTTGTACATATAAAATTTTAAGC [XGTACX_site1866],6.78
22,TACAAAATAAGACATGCATGTTATACATATATATTT [TGCATGCA_site321],6.84
23,TTTATTTTGTAGTGTACACATATATATATATATATA [CACACA_site5843],9.42

row,Sequence,gcPBM binding intensity (ln)
1,TATATATGGAAAAGGTGTACATTCAATATATATATA [XGTACX_site3167],8.63
2,TATGTCAAAAAATAATGTACAAAAAAATTAACATAA [XGTACX_site5463],6.38
3,ATATAAAATAGACACGCACACAAAAAAAAAAAAAAA [CACACA_site3522],6.55
4,CTATAATATAGGTATACACACATATTATAGAATATT [CACACA_site7696],6.2
5,ATTTTAGAATTTAATACACACAAAAAAAAAAAATTA [CACACA_site3704],6.45
6,TATTACATTATATAAACATGCAAAACTATATATTAT [TGCATGCA_site601],6.7
7,AAAAATTTATTTAAAAGTACATAAAATAAAGGTGGA [XGTACX_site7591],7.21
8,ACTTTAGAAATAGAGGTGCTATTTTTATTACCACAC,6.54
9,ATATATGTAGATATATGTACATATATAGGTAGATAT [XGTACX_site7589],7.39
10,TTTATTAAAATATTCTCACACACCAAAATATGTATG [CACACA_site932],6.42
11,ATAAAATAACACAACGTTGACAAATTTGGATGACTC [XGTACX_negctrl_site324],7.16
12,AAAATAATAAAAAGGGGTACAAAGAAACAAATATAA [XGTACX_site296],6.69
13,AAGGAAAAGTAAAGAAGTACTGTACCGCCAAAAAAA [XGTACX_site2607],6.71
14,TTGATGTTGGTAGGATGTACGGTACCGGTAGTATTT [XGTACX_site6642],6.62
15,AATTTATTTTTTTGATGTACATACAATTTATCACAA [XGTACX_site5936],6.74
16,TATGTGCATATAAACTCACACATTGTATATTACATG [CACACA_site6106],10.9
17,TATATAATTGTCTTCACACACACATATATATATATA [CACACA_site2744],9.37
18,AAGAATATTATAAACACACACTTTATAAAGAATTAT [CACACA_site4241],6.5
19,TATTTTATTTGTATATTCATTTGTATAATATAAATA [TGCATGCA_negctrl_site267],6.18
20,AAAAAAAAAAAAAAAACACACATAAAAATATAATAA [CACACA_site3855],6.52
